Source: PubChem BioAssay AID2101 (National Center for Advancing Translational Sciences (NCATS), 2009)
Where “and” joins values, the source holds several entries; their conditions need not be identical. Equal values may be shown once. About 300 (0.091%) of roughly 330,000 compounds were called active. Not shown: some 4% with an inconclusive outcome. Calls come from the whole dose curve; as a rule, active = well fitted inhibition curve with a large enough effect; inconclusive = small, poorly fitted or top-dose-only effect, or effect the other way, or another doubt; inactive = no such curve, though single readings can be large or run the other way. This is a selection; strong and weak results do not stand in their true shares. The source holds several records for some structures; these can differ, active in one and inactive in another.

Target: Lysosomal acid glucosylceramidase (Homo sapiens) (UniProt P04062)
Assay: qHTS Assay for Inhibitors and Activators of N370S glucocerebrosidase as a Potential Chaperone Treatment of Gaucher Disease;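 for activity change, negative = inhibition: 0% = full enzyme activity and -100% = no enzyme basal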
Settings: N370S GC spleen homogenate, 4MU-glucoside fluorescence; series mostly up to 59.4 µM; activity change, negative = inhibition: at the top concentration
Potency is the fitted concentration of half-maximal effect.

Potency, inactive:
COc1ccc2cc(CCC(C)=O)ccc2c1
NCCS(=O)(=O)O
O=c1c(O)c(-c2cc(O)c(O)c(O)c2)oc2cc(O)cc(O)c12
CCN(CC)CCOc1ccc(/C(=C(\Cl)c2ccccc2)c2ccccc2)cc1
CC1=C(/C=C/C(C)=C/C=C/C(C)=C/C(=O)Nc2ccc(O)cc2)C(C)(C)CCC1
CCCCCCCCCCCCCCC[C@@H](O)[C@@H](N)CO
Cc1ccc(C(=O)Nc2ccc(S(=O)(=O)O)c3cc(S(=O)(=O)O)cc(S(=O)(=O)O)c23)cc1NC(=O)c1cccc(NC(=O)Nc2cccc(C(=O)Nc3cc(C(=O)Nc4ccc(S(=O)(=O)O)c5cc(S(=O)(=O)O)cc(S(=O)(=O)O)c45)ccc3C)c2)c1
CN(C)CCCN1c2ccccc2CCc2ccc(Cl)cc21
Cc1cc(C(C)(C)CC(C)(C)C)ccc1OCCOCC[N+](C)(C)Cc1ccccc1
CCCCC[C@H](O)/C=C/[C@@H]1[C@@H](C/C=C\CCCC(=O)O)[C@H]2CO[C@@H]1C2
CO[C@H]1/C=C/O[C@@]2(C)Oc3c(C)c(O)c4c(O)c(c(/C=N/N5CCN(C)CC5)c(O)c4c3C2=O)NC(=O)/C(C)=C\C=C\[C@H](C)[C@H](O)[C@@H](C)[C@@H](O)[C@@H](C)[C@H](OC(C)=O)[C@@H]1C
O=C1NC(=O)C(c2ccccc2[N+](=O)[O-])=C1Nc1ccc(O)c(Cl)c1
COC(=O)[C@H]1[C@H]2CC3c4[nH]c5ccccc5c4CCN3C[C@@H]2CC[C@@H]1O (stereo partly specified)
CC(Cc1cccc(C(F)(F)F)c1)NCCOC(=O)c1ccccc1 (stereo unspecified)
O=C(/C=C/c1ccc(O)c(O)c1)OC(Cc1ccc(O)c(O)c1)C(=O)O (stereo unspecified)
NNCCc1ccccc1
Oc1cc2c(cc1O)[C@H]1c3ccc(O)c(O)c3OC[C@@]1(O)C2
CN1C2CCC1CC(OC(=O)c1c[nH]c3ccccc13)C2 (stereo unspecified)

Potency, active:
Oc1ccccc1Nc1nc(NCc2ccccc2)c2ccccc2n1 11.2 µM
Cc1cc(C)cc(N(CC(=O)Nc2ccc(C(F)(F)F)cc2)S(=O)(=O)c2c(C)[nH]c(=O)[nH]c2=O)c1 2.24 µM
CCNc1ccc(S(=O)(=O)N(C)C)cc1NCC(=O)Nc1ccccc1F 10 µM
CCOc1ccc(N(CC(=O)NC2CCCC2)S(=O)(=O)c2c(C)[nH]c(=O)[nH]c2=O)cc1 7.94 µM
CCOC(=O)CC(=O)CSc1nc2ccc(C)cc2cc1C#N 22.4 µM
Brc1ccc(C2C3=C(Nc4ncnn42)c2ccccc2OC3c2ccncc2)cc1 (stereo unspecified) 14.1 µM
Cc1ccc(C)c(N2CCN(S(=O)(=O)c3ccc4[nH]c(=O)c(=O)[nH]c4c3)CC2)c1 12.6 µM
CCN(Cc1ccccc1)S(=O)(=O)c1ccc(C(=O)N(CCCN(C)C)c2nc3cc(C)cc(C)c3s2)cc1 14.1 µM
COc1cccc(-c2nc(NCc3ccccc3OC)c3ccccc3n2)c1 14.1 µM
CCOc1ccc(NC(=O)CNC(=O)c2cn(-c3ccccc3OC)c(=O)c3ccccc23)cc1 12.6 µM
CN1CCN(S(=O)(=O)c2cccc(C(=O)Nc3sc4c(c3-c3nc5ccccc5[nH]3)CCCC4)c2)CC1 11.2 µM
Cc1ccc2sc(N(CCCN(C)C)C(=O)c3ccc(S(=O)(=O)N(C)C4CCCCC4)cc3)nc2c1C 20 µM
CNc1ncnc2ccc(-c3cccc(OC)c3)cc12 8.91 µM
CC(Nc1nc(-c2ccccc2)nc2ccccc12)c1ccccc1 (stereo unspecified) 5.01 µM
C#CCOCCOCCOCCNc1nc(N2CCN(C(=O)CCCCCCCCCCNC(=O)[C@H](CCCN=C(N)N)n3cc(C[C@@H](C)CC)nn3)CC2)nc(N2CCN(C(=O)CCCCCCCCCCNC(=O)[C@@H]([C@H](C)CC)n3cc(CCCCCN)nn3)CC2)n1 5.62 µM
Cc1ccc(Cl)cc1N1CCN(S(=O)(=O)c2ccc3[nH]c(=O)c(=O)[nH]c3c2)CC1 8.91 µM
COc1cccc(-c2nc(NCCc3c[nH]c4ccc(OC)cc34)c3ccccc3n2)c1 14.1 µM
CN1CCN(NC(=O)c2cn(-c3ccccc3)nc2-c2cccc(Br)c2)CC1 10 µM

Potency, inactive and 15.8 µM (active):
O=c1c(-c2ccc(O)cc2)coc2cc(O)cc(O)c12

Activity change, negative = inhibition, inactive:
Cc1cc(NC(=O)Nc2cccc3ccccc23)no1 21.4%
C=C(C)C1CC=C(CN2CCN(Cc3ccccc3)CC2)CC1 (stereo unspecified) -3.21%
O=C(Nc1cccc(C(F)(F)F)c1)/C(=C/c1ccco1)NC(=O)c1cccs1 12.2%
CC12CCC(C(=O)Nc3ccccc3Cl)(C(Br)C1=O)C2(C)C (stereo unspecified) -9.83%
O=C(NC1CC1)C1=C[C@@H](c2ccc(Br)cc2)C[C@@H](OCc2ccc(CO)cc2)O1 11.2%
O=C(O)c1ccc2c(c1)C(=O)N([C@@H](Cc1ccc(O)cc1)C(=O)O)C2=O 9.37%
OCCN1CCN(CCCN2c3ccccc3Sc3ccc(Cl)cc32)CC1 -7.43% [at 21.6 µM]
COc1cccc(-c2nc(N3CCN(Cc4ccccc4)CC3)c3ccccc3n2)c1O -3.95%
C[C@@H](C(=O)N[C@@H](CO)Cc1ccccc1)[C@@H]1C[C@@]1(C)[C@@H](NC(=O)OCc1ccccc1)c1ccccc1 -21.1%
O=C1O/C(=C\c2ccccc2)c2ccccc21 -1.26%
FC(F)(F)c1ccc(CN2C[C@@H]3C(c4ccc(Cl)nc4)C4(c5cccnc5)CC3(C4)[C@H]2c2ccccc2)cc1 (stereo partly specified) -14.7%
COc1cc2nc(N3CCN(C(=O)C4CCCO4)CC3)nc(N)c2cc1OC (stereo unspecified) 13.9%
CCN(CC)c1ccc(/C=C2/C(=O)c3ccc(C(=O)O)cc3C2=O)cc1 0.0393%
C[C@]1(C(=O)NCCN2CCOCC2)C=C[C@@H](Cc2ccccc2)N1C(=O)c1ccccc1 25.7%
CC[n+]1c(/C=C2\C=C(C)CC(C)C2)sc2ccccc21 (stereo unspecified) -0.754%
Cc1cccc(C2=NN(c3ccc(Br)cc3)[C@@H](C(=O)N3CCOC3=O)[C@@H]2c2ccc(F)cc2)c1 11%
CCCCCCCCCCCCC/C=C\[C@@H](O)[C@@H](N)CO -15.2%
CCO[C@@H]1OC(C(=O)Nc2ccccc2)=C[C@H](c2ccc(C(F)(F)F)cc2)[C@H]1CCCO -6.98%
O[C@H](c1cc(C(F)(F)F)nc2c(C(F)(F)F)cccc12)[C@H]1CCCCN1 -0.556% [at 21.6 µM]
Cc1ccc(S(=O)(=O)Nc2cccc3cccnc23)cc1 3.64%
O=C1CCN(CCc2ccccc2)CCN1C(CSc1ccc(Br)cc1)Cc1ccccc1 (stereo unspecified) -5.74%
CCOC(=O)[C@@H]1[C@H]2COc3ccc(Br)cc3[C@@H]2N2C(=O)N(c3cccc(F)c3)C(=O)[C@@]12C 4.26%
COc1ccc(C(CCN2CCCC2)c2c(OC)cc(OC)c3c(-c4ccccc4)cc(=O)oc23)cc1 (stereo unspecified) -24.1%
CCCCCCCCCCCCCCCC[N+](C)(C)CCN(Cc1ccc(OC)cc1)c1ncccn1 0.347% [at 21.6 µM]
CC(C)COC[C@H](CN(Cc1ccccc1)c1ccccc1)N1CCCC1 2.26% [at 21.6 µM]
COc1cc(C(CCN2CCCC2)c2c(OC)cc(OC)c3c(-c4ccccc4)cc(=O)oc23)cc(OC)c1OC (stereo unspecified) -25.1%
Clc1ccc2c(c1)N=C(N1CCNCC1)c1ccccc1N2 -25.1%
C#CCNC(=O)C1=C[C@@H](c2cn(C(C)=O)c3ccccc23)C[C@@H](OCc2ccc(CO)cc2)O1 5.4%
COC/C=C/C1=CC2=CC(=O)C(C)(OC(=O)c3cnc4ccccc4n3)C(=O)C2=CN1C(CO)CO (stereo unspecified) 5.01% [at 12.8 µM]
C[C@@H]1C(=O)O[C@H]2[C@@H](O)[C@@]34[C@H]5CC(C(C)(C)C)[C@]36[C@@H](OC(=O)[C@@H]6O)O[C@@]4(C(=O)O5)[C@@]12O (stereo partly specified) -7.45%
Cc1ccc(SCC(c2ccccc2)N2CCN(CCc3ccccc3)CCC2=O)cc1 (stereo unspecified) -7.54%
O=C(C1=C[C@H](c2csc3ccccc23)C[C@H](OCCCCO)O1)N1CCN(Cc2ccc3c(c2)OCO3)CC1 -17%
C[C@@H]1C(=O)O[C@@H]2[C@H](O)C34[C@H]5C[C@@H](C(C)(C)C)C36[C@H](OC(=O)[C@@H]6O)OC4(C(=O)O5)[C@@]12O (stereo partly specified) -3.57%
CN1CCN(CC/C=C2/c3ccccc3Sc3ccc(S(=O)(=O)N(C)C)cc32)CC1 -14.3%
CCCCCCCCCCCCC/C=C/[C@@H](O)[C@H](CO)NC(=O)CCCCCCC 1.7%
O=C(NCc1ccccc1)C1=C[C@@H](c2coc3ccccc3c2=O)C[C@@H](OCc2ccc(CO)cc2)O1 25.6%
COc1cccc(NC(=O)OCCN2CCN(Cc3ccccc3)CCC2=O)c1 3.83%
COc1cc(C(CCN2CCOCC2)c2c(OC)cc(OC)c3c2OC(=O)CC3c2ccc(N(C)C)cc2)cc(OC)c1OC (stereo unspecified) -26.5%
CCCN1C(=O)/C(=C/c2nc3ccccc3c(=O)[nH]2)c2ccccc21 15.6%
CC12CCC=CC1C(c1ccc3ccccc3c1)N(Cc1ccccc1)C2=O (stereo unspecified) 6.3%
Nc1nc(-c2ccccc2)cs1 -1.13% [at 12.8 µM]
CCc1ccccc1OC[C@@H](O)CN[C@H]1CCCc2ccccc21 -18.1%
O=C1OCCN1C(=O)[C@H]1[C@H](c2ccc(F)cc2)C(c2ccc(F)cc2)=NN1c1ccc(Br)cc1 10.7%
COc1cc(OC)c2ccc(=O)oc2c1C(CC(=O)N1CCCC1)c1ccc(N(C)C)cc1 (stereo unspecified) 8.36%
